Source: publication PMC10668032
This is one part of the list. At the low end of the ranking the order means little.

Each sequence was assayed against SIX1-Q177R homeodomain (UniProt Q15475) (assay: universal protein binding microarray). Conditions: Universal all-10-mer PBM (8x60K, AMADID 030236), 300 nM GST-tagged protein, Alexa Fluor 488 anti-GST; buffer, salt, pH and temperature not stated; high values mean tight binding; most listed sequences are background and not binding sites; double strand, one strand shown.

Sequence | binding signal
CTAGTTTC | -0.0634 E-score
AGTCCTTC | -0.0766 E-score
AACAGCCC | -0.215 E-score
AGGGAGCG | 0.00641 E-score
CTGAAAAG | -0.0197 E-score
ACTGAAGA | -0.216 E-score
GGGGACTA | 0.0135 E-score
AGGCATCC | -0.0733 E-score
GCGCTCCA | -0.117 E-score
CAGGGTGA | 0.00169 E-score
ATCAGTGG | -0.00236 E-score
ACAAAATG | 0.0689 E-score
ACTATAGC | 0.0481 E-score
AGTGTCGA | 0.408 E-score
ACCCTGTA | 0.153 E-score
AACCCGAC | 0.149 E-score
CCCTTGCC | -0.0706 E-score
AACACCCT | 0.461 E-score
CTCTGCCC | -0.15 E-score
GTCTGCAA | -0.054 E-score
GACCTCAA | 0.101 E-score
TAACTAAA | 0.0528 E-score
ACCTGATA | 0.109 E-score
AAGGGAAT | -0.204 E-score
AAAGATGG | -0.132 E-score

Sequence | binding signal
CATACACA | 0.205 E-score
ATGTGGAC | -0.0763 E-score
ACGGGCCG | 0.129 E-score
CAATTTGG | -0.166 E-score
ATGCCGCG | -0.0437 E-score
CTCTGCTA | -0.264 E-score
CATCTCCC | -0.13 E-score
ACCCATAC | 0.104 E-score
ACACTATG | 0.328 E-score
AAGGAACA | 0.0817 E-score
ATAAGATG | -0.168 E-score
CGCGCTAA | -0.09 E-score
CCCGGGAG | 0.189 E-score
AATATGGG | -0.148 E-score
CATCACGC | -0.278 E-score
AGATCCCG | 0.0946 E-score
CACCGTGG | 0.333 E-score
CTTCTAGA | -0.197 E-score
CCACGTCC | -0.147 E-score
ACTAAAAA | -0.071 E-score
CAAATTCG | -0.104 E-score
CAGCAAGC | -0.191 E-score
AGGGATGG | 0.0847 E-score
CTTCATTC | -0.096 E-score
CCAACTTA | 0.0473 E-score

Sequence | binding signal
GGCATAAC | -0.035 E-score
CACGATCA | 0.125 E-score
CGCATTAC | 0.204 E-score
CATCTCAG | -0.103 E-score
CAGAAGAA | -0.187 E-score
GATTGCGC | -0.249 E-score
CCCATCGA | -0.122 E-score
GCCTGAAC | -0.0897 E-score
GGCACTTA | -0.0352 E-score
GGTGGCGA | 0.0268 E-score
AGCCTTAA | -0.152 E-score
CCTAAAAA | -0.188 E-score
GAATGCTA | -0.172 E-score
GATGGCAC | 0.0604 E-score
GATGTAAA | -0.0112 E-score
GACAATCC | -0.0342 E-score
CCGTTAGC | -0.227 E-score
AGCAAACG | -0.261 E-score
CCTATGCG | -0.0382 E-score
AATCAGAC | -0.0743 E-score
GAGGAAAA | -0.266 E-score
ACATACCA | -0.085 E-score
ACATCCCG | 0.128 E-score
GTTAGTCA | -0.108 E-score
ACTCAGCA | 0.0239 E-score

Sequence | binding signal
ACTTAAGC | -0.151 E-score
AGAGCCAA | -0.18 E-score
ATAGATGG | -0.0369 E-score
CTCCCGGC | 0.152 E-score
CACAGGAC | 0.0327 E-score
GCCCGTAC | -0.0763 E-score
GCAGTCGC | -0.197 E-score
CAAGAGTG | 0.0757 E-score
ACACTAGA | 0.318 E-score
CCCGCGGA | -0.0148 E-score
ATAACATC | 0.126 E-score
ACACTGCC | 0.429 E-score
AGGGCCAG | -0.215 E-score
ACCCCCAC | 0.282 E-score
CATGGGAA | -0.00726 E-score
ATATCGTG | 0.118 E-score
CAATTGAC | 0.0182 E-score
AGGCCTAT | -0.0739 E-score
ACAGGGGA | -0.0189 E-score
AGACAACG | -0.0164 E-score
CGGGGCCC | -0.0725 E-score
ATGGCGGC | -0.247 E-score
TGGCAGAA | -0.191 E-score
ATCCCTAG | 0.154 E-score
CCGTCGCA | -0.197 E-score

Sequence | binding signal
CGAGTACC | 0.168 E-score
ACTGGAGC | -0.0802 E-score
ACGCCTCG | 0.104 E-score
AAACTGCG | -0.145 E-score
ACCTCAAC | 0.27 E-score
AGTCAGCA | -0.153 E-score
GAAGTTGA | -0.112 E-score
ATTATCTA | -0.0424 E-score
GTGCCTAA | -0.148 E-score
ATGTGCAC | 0.14 E-score
CCGACGTC | -0.203 E-score
CCCATATC | 0.0889 E-score
AGAGCGAA | -0.091 E-score
ATTTTTAG | -0.123 E-score
ATGAGTAA | -0.0847 E-score
CGAGAGGA | -0.0149 E-score
ATGCGCAA | -0.195 E-score
TGCATGAA | -0.0753 E-score
CCCCCTGC | 0.156 E-score
AAGACGAG | 0.00507 E-score
CGCTCTTA | -0.105 E-score
GAACATGC | -0.0849 E-score
CGTTGCTA | -0.157 E-score
TAACCCCA | 0.217 E-score
CAGCTCAA | -0.351 E-score

Sequence | binding signal
TCCCGCAA | 0.00702 E-score
GTATTCTA | 0.174 E-score
TAAGGGTA | 0.163 E-score
ACAATTAG | -0.0821 E-score
CCTTGGCC | -0.132 E-score
GACTGACA | 0.096 E-score
CTAATTGC | -0.0208 E-score
ATCGAACC | 0.0362 E-score
TATGGTAA | 0.0115 E-score
GTGTCGTA | 0.45 E-score
CCGAAAGG | 0.00382 E-score
GAGACGTA | -0.0858 E-score
CTAAGAGC | 0.0238 E-score
AGACGCTG | 0.107 E-score
AGACTGAA | -0.241 E-score
ATTCACAG | -0.218 E-score
GTCCCGCA | 0.0344 E-score
AACGCAAG | -0.139 E-score
CGCGGCCC | -0.124 E-score
CGCGTAGC | 0.0579 E-score
CCTTGTCA | 0.0528 E-score
AGTAACCC | 0.201 E-score
ATGACAGA | -0.199 E-score
ATATTAAA | 0.085 E-score
CAATGGCA | -0.11 E-score

Sequence | binding signal
ATTTGCGG | -0.222 E-score
CCCCCACC | 0.133 E-score
AGTTAAAT | -0.196 E-score
CAAATGGC | -0.169 E-score
ACTTCTAC | 0.182 E-score
ATTGTAGC | -0.0606 E-score
CCTATCGC | -0.108 E-score
CACGAAGG | 0.146 E-score
CACAATCG | 0.0233 E-score
AAGTCTCG | -0.14 E-score
AAACTTAG | -0.128 E-score
ACCTAGTG | 0.232 E-score
AGGGTCGG | 0.172 E-score
ATATAGTG | 0.265 E-score
AGACTAGC | -0.232 E-score
CCACTCCC | -0.007 E-score
CATTTTAA | -0.141 E-score
CCTGGTCG | 0.125 E-score
CACTCACA | 0.228 E-score
CAATTGCA | -0.0728 E-score
GGAGGGCC | -0.149 E-score
CATGTGGC | -0.229 E-score
